This is one part of the list.
What was measured:
HSkMC = human skeletal muscle cells; assay: cytotoxicity call (relative viability < 0.9); conditions: 10 µM
HepG2 = assay: cytotoxicity call (relative viability < 0.9); conditions: 10 µM
S. aureus RN4220 = assay: growth inhibition call (relative growth <= 0.2); conditions: 50 µM

Row | Structure (SMILES) | cytotoxicity call (HSkMC) | cytotoxicity call (HepG2) | growth inhibition call (S. aureus RN4220)
1 | CN(C)C(=O)CN1C[C@@H]2CCN(C(=O)[C@H]3CCCO3)CC[C@H]2S1(=O)=O | inactive | inactive | inactive
2 | COc1cccc(C#Cc2ccc3c(c2)O[C@H](CN(C)C(=O)CN2CCOCC2)[C@H](C)CN([C@H](C)CO)S3(=O)=O)c1 | inactive | inactive | inactive
3 | CC(N)C12CC3CC(CC(C3)C1)C2.Cl (configuration not stated) | inactive | inactive | inactive
4 | O=C1CCN(c2ccccc2)N1 | inactive | inactive | inactive
5 | C[C@@H]1CN([C@H](C)CO)C(=O)c2cc(NC(=O)Nc3ccc(C(F)(F)F)cc3)ccc2O[C@@H](C)CCCCO[C@@H]1CN(C)Cc1ccc(C(F)(F)F)cc1 | active | inactive | inactive
6 | COc1cc2nc(N3CCN(C(=O)C4COc5ccccc5O4)CC3)nc(N)c2cc1OC.CS(=O)(=O)O (configuration not stated) | inactive | inactive | inactive
7 | C[C@@H]1CN([C@@H](C)CO)C(=O)c2cccc(NS(C)(=O)=O)c2O[C@@H]1CN(C)C(=O)NC1CCCCC1 | inactive | inactive | inactive
8 | Nc1ccc(-c2nn[nH]n2)cc1F | inactive | inactive | inactive
9 | Nc1ccc(CO)cn1 | inactive | inactive | inactive
10 | CO[C@H]1O[C@H](COC(=O)NCCCCCC(=O)NO)[C@@H](OC(=O)Nc2ccccc2)[C@@H]2OC(=O)[C@H](Cc3cccc(Br)c3)C/C=C/C[C@@H](Cc3cccc(Br)c3)C(=O)O[C@@H]12 | inactive | inactive | inactive
11 | Cc1noc(C)c1S(=O)(=O)Nc1ccc2c(c1)C(=O)N([C@@H](C)CO)C[C@@H](C)[C@H](CN(C)S(=O)(=O)c1cn(C)cn1)O2 | inactive | inactive | inactive
12 | C[C@H](CO)N1C[C@H](C)[C@H](CN(C)S(=O)(=O)c2cn(C)cn2)Oc2ccc(NC(=O)Nc3ccccc3)cc2CC1=O | inactive | active | inactive
13 | C[C@@H]1CN([C@@H](C)CO)C(=O)c2c(c3ccccc3n2C)-c2ccccc2CO[C@H]1CN(C)S(=O)(=O)c1ccc(Cl)cc1 | inactive | active | inactive
14 | COc1ccc(NC(=O)Nc2ccc3c(c2)C(=O)N([C@@H](C)CO)C[C@@H](C)[C@@H](CN(C)S(=O)(=O)c2ccccc2)OCCCC[C@@H](C)O3)cc1 | inactive | inactive | inactive
